Experimental data taken from PubChem BioAssay AID1347417 (National Center for Advancing Translational Sciences (NCATS), 2020).
In all, about 120,000 compounds went through this assay and about 5,300 (4.4%) were called active. Inconclusive results, whose numbers are uncertain, are shown with a selection of clear calls. The call rests on the fitted dose curve; in most records, active means well fitted inhibition curve with a large enough effect; inconclusive means small, poorly fitted or top-dose-only effect; inactive means no such curve, though single readings can be large or run the other way. Potencies beside an inconclusive call are fits to weak or partial responses and may not hold up.
Potency means the concentration at half of the fitted maximal effect; tags describe the fitted curve by direction and shape.

Assay: qHTS Primary assay for Inhibitors of Plasmodium falciparum Dd2 growth in vitro; further: nearly all actives have a fitted effect of over 65% in size;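 on activity, negative = inhibition: plate controls were DMSO vehicle for no effect and reference drug for full effect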
Conditions: P. falciparum Dd2 growth, SYBR Green, 72 h; activity, negative = inhibition: at 28.9 µM (top of the series) unless noted; series mostly up to 28.9 µM
Summary of the method: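 Infected erythrocytes (Dd2, 0.3% parasitemia, 2.5% hematocrit final) are added to compound in RPMI-1640/Albumax II medium, grown 72 h at 37C in low oxygen, then lysed with saponin/Triton-X containing SYBR Green and read by fluorescence.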
In the case of `COc1ccc(Cl)cc1NC(=O)c1nnn(Cc2cccc(C(F)(F)F)c2)c1N`, the Potency is reported as “inactive”.
In the case of `CCC(C)Sc1oc(-c2ccco2)nc1S(=O)(=O)c1ccc(C)cc1` (centres undefined), the Potency is reported as inconclusive: 17.8 µM [inhibitor, single point].
In the case of `COc1ccccc1C1Nc2c(sc3nc(C)cc(C)c23)C(=O)N1c1ccccc1` (centres undefined), the Potency is reported as inconclusive: 10 µM [inhibitor, partial curve, poor fit].
In the case of `Cc1cn(CCn2ccnc2-c2nc[nH]c2C)nn1`, the Potency is reported as “inactive”.
For `CC(=O)NC[C@H]1CCN(Cc2ccc(F)c(Cl)c2)C[C@H]1N(C)C`, the Potency was inconclusive: 3.55 µM [inhibitor, partial curve, poor fit].
In the case of `CCn1ccnc1CN1CCCC(CNC(=O)c2cccc(OC)c2OC)C1` (centres undefined), the Potency is reported as “inactive”.
For `CCN1c2cc(C(=O)NCc3ccncc3)ccc2C(=O)N2CCCCCC21` (centres undefined), the Potency was “inactive”.
In the case of `CCOC(=O)N1CCC(NC(=O)c2cnn(-c3ccc(F)cc3F)c2C2CCN(C(=O)OC(C)(C)C)CC2)CC1`, the Potency is reported as active: 3.55 µM.
With `COc1cccc(CN2CCCC(NCc3cc(C)ccc3-n3cccn3)C2)c1` (centres undefined) the Potency was inconclusive: 1.41 µM [inhibitor, full curve].
With `CN(C)C[C@@H]1CN(C)C[C@H]1NS(=O)(=O)c1cc(F)cc(F)c1` the Potency was active: 8.91 µM.
With `O=C(Cc1c(F)cccc1Cl)N1CCC(c2noc(COc3ccc(F)cc3)n2)CC1` the Potency was “inactive”.
For `O=C(c1ccc(F)cc1)N1CCC2(CN[S+](=O)([O-])c3ccccc3N2)C1` (centres undefined), the Potency was “inactive”.
With `Cc1noc(C)c1CCC(=O)N1C[C@@H](CO)[C@H](c2ccccn2)C1` the Potency was “inactive”.
In the case of `NS(=O)(=O)c1ccc(CCNC(=O)Cn2c(-c3cccs3)cc3ccccc32)cc1`, the Potency is reported as inconclusive: 15.8 µM [inhibitor, partial curve, poor fit].
For `O=C1NCc2ccccc2CC12CCCCN2CC1CC=CCC1` (centres undefined), the Potency was inconclusive: 0.447 µM [inhibitor, full curve, poor fit].
In the case of `Cc1cc2c(cc1C)NC(CC(=O)Nc1cccc(Cl)c1)C(=O)N2` (centres undefined), the Potency is reported as inconclusive: 0.891 µM [inhibitor, partial curve, poor fit].
With `COc1cccc(NC(=O)C2CC(=O)N(c3n[nH]c4cc(Br)ccc34)C2)c1` (centres undefined) the Potency was “inactive”.
For `Cc1ccc2c(n1)N(C)[C@H](CO)CCN(Cc1ccncc1)C2`, the Potency was “inactive”.
For `Cc1ccsc1-c1[nH]nc2ncc(-c3ccnn3C)nc12`, the Potency was inconclusive: 1 µM [inhibitor, single point].
In the case of `CCCN1C(=O)Cc2cc(C(=O)N3CCN(c4ccccc4Cl)CC3)ccc21`, the Potency is reported as inconclusive: 1.78 µM [inhibitor, partial curve, poor fit].
With `CCOCCOC1CCN(C(=O)Cc2cccc(F)c2)CC1` the Potency was “inactive”.
For `Cc1cn2nnc(C(=O)N3CCC(C(=O)Nc4ccc(C)c(Cl)c4)CC3)c2c(=O)[nH]1`, the Potency was inconclusive: 2.82 µM [inhibitor, single point].
In the case of `CCCC(=O)N1C[C@@H]2CCCN3CCC[C@@H]([C@H]23)[C@H]1CCCC(=O)N1CCOCC1`, the Potency is reported as “inactive”.
With `Cn1cc(C(=O)N2CCOc3c(O)cc(-c4csc5ccccc45)cc3C2)cn1` the Potency was inconclusive: 8.91 µM [inhibitor, partial curve].
For `F[C@@H]1CN(Cc2cccnc2)C[C@@H]1OCc1nc2ccc(C(F)(F)F)cc2[nH]1`, the Potency was inconclusive: 20 µM [inhibitor, single point].
With `COc1ccc(C2Cn3cnc(C(=O)N4CCC(C(=O)Nc5cc(F)cc(F)c5)CC4)c3CO2)cc1` (centres undefined) the Potency was inconclusive: 3.55 µM [inhibitor, single point].
For `O=S(=O)(c1ccccc1)N1CCC(Cc2nncn2-c2ccccc2)C1` (centres undefined), the Potency was “inactive”.
With `COc1ccc(C(=O)N2CCC3(CC2)CC(=O)c2ccccc2O3)cc1` the Potency was inconclusive: 12.6 µM [inhibitor, single point].
In the case of `CC1=NOC2(CCN(Cc3ccc(C(F)(F)F)cc3)C2)C1` (centres undefined), the Potency is reported as “inactive”.
With `O=C(Nc1ccc2nc(SCC(=O)N3CCc4ccccc43)sc2c1)c1ccc(F)cc1` the Potency was inconclusive: 6.31 µM [inhibitor, partial curve, poor fit].
In the case of `Cc1nn(C)c(C)c1S(=O)(=O)N1CCC2(CC1)c1[nH]c3ccccc3c1CCN2C`, the Potency is reported as “inactive”.
For `COc1ccc(CN(Cc2ccco2)c2cnc(S(C)(=O)=O)nc2C(=O)Nc2ccc(C)c(Cl)c2)cc1`, the Potency was active: 10 µM.
With `Cc1ccc(C)c(N2CCN(C(=O)CCc3conc3-c3ccccc3F)CC2)c1` the Potency was inconclusive: 3.98 µM [inhibitor, single point].
In the case of `CN1CCN(c2cc(-c3cncc(N)c3)nc(N)n2)CC1`, the Potency is reported as “inactive”.
For `COc1ccc(NC(=O)C(=O)NCC(c2cccnc2)N2CCc3ccccc32)cc1OC` (centres undefined), the Potency was inconclusive: 10 µM [inhibitor, single point].
With `CCS(=O)(=O)N1CCCCCCNC(=O)[C@@H]2C[C@@H](C(=O)NCCc3c[nH]c4ccccc34)C[C@@H]21` the Potency was inconclusive: 1.58 µM [inhibitor, partial curve, poor fit].
In the case of `COc1ccc(C(=O)N2CCCC3(C2)Nc2cccnc2NC3=NCc2ccccc2)cc1` (centres undefined), the activity, negative = inhibition is reported as inactive: -21.8% [at 5.79 µM].
In the case of `O=C(Cc1ccccc1)N1CCC2(CC1)CC(N(C(=O)c1ccccc1)C1CC1)CCO2` (centres undefined), the Potency is reported as inconclusive: 12.6 µM [inhibitor, partial curve, poor fit].
With `CC1CCc2nn(CC(=O)Nc3ccccc3Cl)cc2C1` (centres undefined) the Potency was inconclusive: 10 µM [inhibitor, single point].
With `CCOC(=O)c1cnc2ccccc2c1NCCc1ccc(OC)c(OC)c1` the Potency was inconclusive: 11.2 µM [inhibitor, single point].
For `COc1ccc2cc(CN3CCC(CO)CC3)c(-c3ccc(Cl)cc3)nc2c1`, the Potency was inconclusive: 10 µM [inhibitor, single point].
For `Cn1cnc2cc(Nc3ccc(Cl)cc3F)cc(C(=O)NCc3cccnc3)c21`, the Potency was inconclusive: 22.4 µM [inhibitor, single point].
For `COCC(=O)NC[C@H]1CCN(Cc2cccs2)C[C@H]1N(C)C`, the Potency was inconclusive: 7.08 µM [inhibitor, single point].
In the case of `c1cncc(Nc2cc3c(cn2)CN(Cc2ccc4[nH]ccc4c2)CCN3)c1`, the Potency is reported as active: 2.82 µM.
For `C=CCNC(=O)Nc1nc2c(s1)C[C@]1(C)CC[C@@H]3[C@H](OC(=O)[C@H]3C)[C@H]1[C@@H]2C`, the Potency was inconclusive: 10 µM [inhibitor, partial curve].
With `O=C1CN([S+](=O)([O-])C2CC2)CCN1[S+](=O)([O-])c1ccc(Cl)nc1` the activity, negative = inhibition was inconclusive: -51.5% [inhibitor].
For `O=C(NCc1cccc(Cl)c1)c1ccc(NC(=O)N2CC3CCCN3c3ccccc32)cc1` (centres undefined), the Potency was active: 8.91 µM.
For `O[C@@H]1C[C@@H](c2nc(-c3ccncc3)no2)N(C2CCCCC2)C1`, the Potency was inconclusive: 15.8 µM [inhibitor, single point].
With `COc1cccc(NC(=O)c2c(OC)cc(=O)n3c2CCCC3)c1` the Potency was “inactive”.
In the case of `O=c1[nH]nc2n1CCN(Cc1ccc3c(c1)CCO3)CC2`, the Potency is reported as “inactive”.
With `C[S+](=O)([O-])N1CCCC(c2nn(-c3ccc(F)cc3)c(=O)[nH]2)C1` (centres undefined) the Potency was “inactive”.
For `CCCNc1cc(N2CCC(CCC(=O)Nc3cc(C)ccc3C)CC2)ncn1`, the Potency was “inactive”.
For `Cn1cccc1CN1CCCC2(C1)C(=NC1CCCCC1)NC(=O)N2c1cc(F)cc(F)c1` (centres undefined), the Potency was inconclusive: 3.55 µM [inhibitor, partial curve, poor fit].
For `C[C@]1(CO)[C@H]2Cc3sc(NC(=O)c4ccco4)nc3[C@@H](CC(=O)NCc3cccnc3)[C@]2(C)CC[C@H]1O`, the Potency was active: 7.08 µM.
In the case of `Cc1nc(N2CCC(NC(=O)Cc3ccccc3C)CC2)cc(C(F)(F)F)n1`, the Potency is reported as “inactive”.
In the case of `COc1ccccc1NC(=O)CSc1nc2ccccc2c2nc(-c3ccccc3)nn12`, the Potency is reported as inconclusive: 3.98 µM [inhibitor, single point].
In the case of `Cc1noc(C)c1CC(=O)NC1CCc2nnc(C3CC3)n2CC1` (centres undefined), the Potency is reported as “inactive”.
In the case of `O=C(NCCc1ccncc1)C1CN(C(=O)COc2ccccc2)CC12CCOCC2` (centres undefined), the Potency is reported as “inactive”.
With `COc1ccc(OCc2nc3c4c(-c5ccccc5)c(-c5ccccc5)oc4ncn3n2)cc1` the Potency was “inactive”.
With `COc1ccc(CNC(=O)CSc2nc3ccccc3nc2Cc2ccccc2OC)cc1` the Potency was inconclusive: 10 µM [inhibitor, partial curve, poor fit].
In the case of `O=C(c1ccc2c(c1)OCO2)N1CCN(c2nnc3ccccn23)CC1`, the Potency is reported as inconclusive: 3.55 µM [inhibitor, partial curve, poor fit].
For `COc1ccc(OC)c(S(=O)(=O)NCc2cccn2Cc2cccc(C)c2)c1`, the Potency was “inactive”.
In the case of `CC1=C(C(=O)Nc2cccnc2)C(c2ccc(Cl)cc2)n2nc(-c3ccccc3)nc2N1` (centres undefined), the Potency is reported as “inactive”.
For `Cc1ccc(C(=O)N2CCC[C@H](n3c(=O)n(Cc4ccccc4)c4cccnc43)C2)cn1`, the Potency was inconclusive: 11.2 µM [inhibitor, partial curve].
For `Cc1ccc(C)c(NC(=O)CSc2c3c(nc4ccc(Cl)cc24)CCCC3)c1`, the Potency was inconclusive: 17.8 µM [inhibitor, single point].
With `COc1cccc(CN2CC(Oc3ccccc3C(=O)NCc3ccccc3)C2)c1` the Potency was active: 3.55 µM.
With `Fc1cccc(-c2cnc(Nc3cnccn3)c3c2CCO3)c1` the Potency was inconclusive: 31.6 µM [inhibitor, single point].
With `COc1ccc(/C=C(\C#N)c2nc(-c3cc4c(ccc5ccccc54)oc3=O)cs2)cc1O` the Potency was inconclusive: 3.55 µM [inhibitor, partial curve].
With `COc1ccc(-c2noc([C@@H]3C[C@@H](O)CN3Cc3ncc[nH]3)n2)cc1` the Potency was “inactive”.
